Our source for the survival values is PubChem BioAssay AID463173 (ICCB-Longwood Screening Facility, Harvard Medical School, 2010).

Out of some 52,000 compounds screened, about 4,300 (8.3%) were called active. Cut-off read from the data, not from the text of the source: active = survival mostly below about 52% (no sharp cut-off); inactive = mostly above about 56%. The list shows a part of the results.

For this test, the system named is DeltatarO mutant. Put plainly: S. aureus survival, RN4220 and DeltatarO strains – OD600, teichoic acid synthesis inhibitors, primary screen (AID 463173). Particulars: S. aureus RN4220 wild type/DeltatarO growth, OD600, 18 h, active compounds read low, screened at 18.75 µg/mL (by protocol).
Regarding `COc1ccccc1CNc1nc(-c2ccco2)nn1S(=O)(=O)c1ccc(Cl)cc1`, the survival is inactive: 73%. To `Cc1ccc(S(=O)(=O)Nc2cc(Cl)c3oc4c(c3c2)C(=O)CC(C)(C)C4)cc1` belongs inactive: 127%; to `COCCNC(=O)C(=O)Nc1c2c(nn1-c1ccccc1)CS(=O)(=O)C2`, inactive: 92%. With `Cc1ccccc1NC(=O)CSc1nc2ccc(NC(=O)COc3ccccc3F)cc2s1`, the survival was inactive: 68%. Take `COc1cc(OC)c(NC(=O)Cn2c(=O)cc(C(F)(F)F)c3c(C)nn(C)c32)cc1Cl`: the survival is inactive: 73%. For `CCc1ccccc1NC(=O)c1cnn2c(C(F)(F)F)cc(-c3ccc(OC)c(OC)c3)nc12`, the survival is active: 46%.

Turning to `CCC(Cn1nnc2ccccc2c1=O)NC(=O)Nc1cccc(Cl)c1` (configuration not stated), the survival is active: 39%. For the compound `Cc1ccc(C(=O)N2CCN(c3ccccc3F)CC2)cc1NC(=O)c1nsc2ccccc12`, the survival is inactive: 66%.

On to `COc1ccc(-c2[nH]ncc2C(=O)NCc2ccc(F)cc2)cc1`, for which the survival is inactive: 77%. As to `CCc1cccc(NC(=O)Cn2c(=O)n(CC3CCC(C(=O)NCCc4ccccc4)CC3)c(=O)c3ccccc32)c1` (configuration not stated), the survival was inactive: 104%.

Turning to `O=C(Nc1ccccc1C(=O)O)c1cccc(S(=O)(=O)N2CCCC2)c1`, the survival was inactive: 87%. For `O=C(NCc1ccc(F)cc1)C1CCN(C(=O)c2cnn(-c3ccccc3)c2-n2cccc2)CC1`, the survival is inactive: 87%. Turning to `CCCCN(CC)CCCNC(=O)c1cn(C)c2ccc(S(=O)(=O)N(C)C3CCCCC3)cc2c1=O`, the survival is inactive: 96%. Consider `CCOc1cc(C(=O)NCc2ccc3c(c2)CCN3C(=O)CC)cc(OCC)c1OCC`, for which the survival was inactive: 72%. To `Cc1ccccc1NC(=O)CN(C)S(=O)(=O)c1cccc2nsnc12` belongs inactive: 70%. The same measure for `COc1ccc2oc(=O)c(C(=O)N(C)Cc3cccnc3)cc2c1`: inactive: 85%. In the case of `CCCN1C(=O)CN(C2CCCCCC2)C(=O)C1c1ccc(OCC)c(OC)c1` (configuration not stated), the survival was inactive: 109%.

Regarding `COCCCNC(=O)c1c(NC(=O)c2cc(=O)c3cc(C)c(C)cc3o2)sc2c1CCCC2`, the survival is inactive: 121%. As for `COc1ccccc1CCNC(=O)c1cc2ccccn2n1`, the survival was inactive: 129%.

Turning to `CCCCNc1cc(NC2CCCCC2)c2c3c(onc13)-c1ccccc1C2=O`, the survival is inactive: 92%.

Regarding `COc1ccc(N2C(=O)C(CC(=O)Nc3ccc(F)cc3)N(CCC3=CCCCC3)C2=O)cc1` (configuration not stated), the survival is inactive: 62%.

In the case of `COc1ccccc1CCNC(=O)Cc1c(C)c2c(cc(C)c3c(C)coc32)oc1=O`, the survival was inactive: 96%. For the compound `O=C(NC1CC(=O)N(c2cccc(F)c2)C1)C1CCCCC1` (configuration not stated), the survival was inactive: 87%. Regarding `CN(C(=O)Nc1cn(C)c(=O)c2ccccc12)c1ccccc1`, the survival is active: -5%. For `CCCCn1c(C)nc2ccccc21`, the survival was inactive: 104%.

As to `O=C(CSC1=Nc2ccccc2N=C(c2ccc(F)cc2)C1)Nc1cc(F)ccc1F`, the survival is inactive: 97%. Take `COc1ccc(Cl)cc1NC(=O)CN1c2ccccc2S(=O)(=O)c2ccccc21`: the survival is inactive: 75%. Consider `Cc1cc(NS(=O)(=O)c2ccc(NC(=O)COc3c(C)cc(Br)cc3C)cc2)no1`, for which the survival was inactive: 110%.

With `O=S(=O)(NCc1ccccc1)c1ccc2[nH]c3c(c2c1)CCCCC3`, the survival was inactive: 82%. To `COc1cccc(NS(=O)(=O)c2ccc3[nH]cc(C(=O)NC4CCCCC4)c(=O)c3c2)c1` belongs active: 35%; to `CCCOc1ccc(CNC(=O)C2CCN(c3nc4ccccc4nc3C(F)(F)F)CC2)cc1`, inactive: 75%; to `CCn1cc2nc(SCc3cccc(OC)c3)n(Cc3ccc(Cl)cc3)c(=O)c2n1`, inactive: 60%. Turning to `COC(=O)c1cc2sccc2n1Cc1ccccc1`, the survival was active: 35%. As to `O=C(CCC1N=C2c3ccccc3N=C(SCc3cccc(F)c3)N2C1=O)NC1CCCCC1` (configuration not stated), the survival was inactive: 94%. To `CCS(=O)(=O)c1nc(S(=O)(=O)c2ccc(C)cc2)c(NCc2ccc(Cl)cc2)s1` belongs inactive: 74%; to `CCOC(=O)c1ccc(NS(=O)(=O)c2cn(C)c(C)n2)cc1`, inactive: 69%; to `Cc1ccc(S(=O)(=O)N2CCCc3cc(NC(=O)c4ccc(F)c(F)c4)ccc32)cc1`, inactive: 93%. In the case of `COc1cccc(C(=O)Nc2cc(-c3ccccc3)nn2-c2ccccc2)c1`, the survival was inactive: 88%. As to `O=C(COc1ccc2oc3c(c2c1)CCCC3)Nc1ccc(Cl)cc1`, the survival is inactive: 85%. Take `CCOc1ccc(-c2c(C)nn3c(-c4ccccc4)c(C(=O)NCCOC)cnc23)cc1OCC`: the survival is active: -5%. As to `CCOc1ccc(C(=O)Nc2ccc(C(=O)OCc3cc(=O)n4nc(CC)sc4n3)cc2)cc1`, the survival was inactive: 83%. Take `COC(=O)c1ccc(NC(=O)N2CCC(CN3CCc4ccccc4C3)CC2)cc1`: the survival is active: 6%. In the case of `COc1ccc(NC(=O)CSc2ccc(-c3cccs3)nn2)cc1`, the survival was inactive: 87%.

On to `COc1ccc(/C=C/C(=O)N2CCC(c3nc4ccccc4o3)CC2)cc1`, for which the survival was inactive: 83%.

As to `Cc1cccc(C)c1OCC(=O)N1CCC(c2nc3ccccc3o2)CC1`, the survival is inactive: 86%. In the case of `Nc1c(C(=O)NCc2ccc3c(c2)OCO3)nnn1CC(=O)Nc1ccc(Br)cc1`, the survival is inactive: 55%. On to `COc1ccc(NC(=O)CN(C)S(=O)(=O)c2ccc(C(=O)N3CCOCC3)s2)cc1`, for which the survival was inactive: 101%. The same measure for `Cc1cc(SCC(=O)Nc2ccc(Cl)cc2)nc2ccccc12`: inactive: 65%; for `Cc1ccc(Cn2cc(C(=O)c3ccc(C)cc3)c(=O)c3ccc(C)nc32)cc1`: active: 24%; for `CCc1ccc(-c2cc(C)no2)cc1S(=O)(=O)Nc1ccc(Cl)cn1`: active: 17%.

With `Cc1cccc(NC(=O)CSc2cn(CC(=O)N3CCCC3)c3ccccc23)c1C`, the survival is inactive: 99%. With `CC(=O)N1CCCc2cc(S(=O)(=O)N3CCCC(C(=O)NCc4ccccc4)C3)ccc21` (configuration not stated), the survival was inactive: 90%. The same measure for `CCOc1ccc(NC(=O)Cn2cc(C(=O)c3ccc(OCC)cc3)c(=O)c3cc4c(cc32)OCCO4)cc1`: inactive: 71%.

Regarding `CN(C)S(=O)(=O)N1CCC(n2cnc3cccnc32)CC1`, the survival was inactive: 89%. For the compound `CC(=O)N1CC=C2C(C#N)=C(N)C(C#N)(C#N)C(C)C2C1` (configuration not stated), the survival was inactive: 83%.

Regarding `COc1ccccc1Cn1c(CNS(=O)(=O)c2ccc(CC(C)C)cc2)nc2cccnc21`, the survival is inactive: 95%. With `Cc1ccc(CCNC(=O)c2cc3cc4cc(C)ccc4nc3s2)cc1`, the survival was active: 46%.
